Data published in article PMC12136788.
This is one part of the list.

T1: UNK ZnF1-3 (human, UniProt Q9C0B0 31-174)
T1 sequence: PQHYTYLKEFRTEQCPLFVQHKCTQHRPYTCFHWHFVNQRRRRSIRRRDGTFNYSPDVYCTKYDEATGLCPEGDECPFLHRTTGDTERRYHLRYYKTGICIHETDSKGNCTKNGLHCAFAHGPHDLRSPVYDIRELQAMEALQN

B1: chrX:98860016:98860017:+_ENSMUSG00000034160_ENSMUST00000044475|mus_hu|motif|central (ssRNA)
RNA: GGGAGUUCUACAGUCCGACGAUCCUCCUUAUAAUGCAUCAGAGCUUCCUGCAGUUUUCCCUGCUGCUGCAGUACACUUGCGGAAUUUGAAUGGGCAGCAGCAAACUCUGGGAAGACUUCUAAUGCUUUACGAUACAAGCGAACCAACAGAGGAUUGAGCAUCA
B2: 100340318_100340781_1494_3pUTR_ENSG00000162688_ENST00000361915|human|control|control (ssRNA)
RNA: GGGAGUUCUACAGUCCGACGAUCUUCUCUGAAUUUAAUUCCUCCAUUCUUUUAUGAAACCAAUUACAGCAUUCUUCAAUUGCUGCUGGCCCCUUGUCAUGUGGUAUGAAAGUCGUUAGUGCAAUGUUCAUAUCUACAGUACAGCAACAGAGGAUUGAGCAUCA
B3: chr7:63234579:63234580:-_ENSMUSG00000047037_ENSMUST00000052204|mus_mus|FALSE|FALSE (ssRNA)
RNA: GGGAGUUCUACAGUCCGACGAUCCCAACCAUCGGGAGCUCUGUGCUGCAGAGGUCUGGACCUCACCCUGGUGCAAAGCCUAUUGUCCACUGGAUUAUUAGUUCACAGGCAAUGCUCACCGAGAGUCUCUUCUACGUGACAUGUCAACAGAGGAUUGAGCAUCA
B4: chr7:65705475:65705476:+_ENSG00000169902_ENST00000304842|hu_hu|hu_hu_hu_mus_True|48_98 (ssRNA)
RNA: GGGAGUUCUACAGUCCGACGAUCUCUAUUCGGUGAUGGCAUUCCAUGGCAUGCUGGCCCAGGUAAAACACGGUCACAGAACUAAUCACCAGACAUGCCAAGAGUAAGUUCUGCUUCAGCUUCCCAACCAUCUUGAUGUGGUUACAACAGAGGAUUGAGCAUCA
B5: chr18:67943652:67943653:+_ENSMUSG00000079614_ENSMUST00000025421|mus_mus|motif|central (ssRNA)
RNA: GGGAGUUCUACAGUCCGACGAUCAGUUGUCCUCUUCACCCAGUGACUCUGUCCUCGAAGUUUAUCGUUUGAUUCUCCCACGGUUUCUUCCCAUACAGCUGCUGUUCGGUCAAAAGAACAGGAAGCCAAAACUUGUCCAAAUUCCAACAGAGGAUUGAGCAUCA
B6: chr4:141471443:141471444:+_ENSG00000179387_ENST00000323570|hu_hu|FALSE|FALSE (ssRNA)
RNA: GGGAGUUCUACAGUCCGACGAUCAAGUGCUACAUUACAAUCCAGUAAAAGUCCUUUAAUCUUUUCAUGAAACUUCUCUCUAUACAAAUUGAAAUACAUAAUGCUUUCUGGUUCUUCUUCAAACCAAAACUUGUCAAAUUCAUACAACAGAGGAUUGAGCAUCA

Target: T1, UNK ZnF1-3
Experiment: nsRBNS (natural sequence RNA bind-n-seq); RBNS binding buffer (assumed for nsRBNS): 25 mM Tris pH 7.5, 150 mM KCl, 3 mM MgCl2, 0.01% Triton X-100, 500 ug/ml BSA, 20 U/ml SUPERase-In, 4 C; UNK is unkempt and MSI1 is Musashi-1; names of the RNAs are library labels; protein concentration not given here; high values mean tight binding

Question: How did the binding signal turn out when B1 was run?
Answer: The binding signal was 0.448 enrichment R.

Question: With B2 as the binder, how does the binding signal read?
Answer: Its binding signal is 0.607 enrichment R.

Question: Which binding signal does the source give for B3 here?
Answer: The binding signal was 1.02 enrichment R.

Question: B4 was tested. Which binding signal did it give?
Answer: The binding signal was 0.491 enrichment R.

Question: With B5 as the binder, how does the binding signal read?
Answer: Its binding signal is 1.03 enrichment R.

Question: B6 was tested. Which binding signal did it give?
Answer: Its binding signal is 0.75 enrichment R.
